This is one part of the list.
Experiments:
Assay in all cases: glycan array binding signal (z-score within array); higher = stronger binding
Conditions in all cases: glycan notation: IUPAC condensed, linker removed
[1] = target: Fuc(a1-2)Gal
Outline: (§1)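 Arrays were curated from the Consortium for Functional Glycomics database, 3228 in total, and kept only where the protein sequence was available. Binding is expressed as a within-array Z-score. This score was averaged across arrays of the same protein sequence at different concentrations or buffers and across linkers, and negative values can be read as non-binding.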

[2] = target: Fuc(a1-2)Gal(b1-3)GalNAc
Outline: as §1

[3] = target: Fuc(a1-2)Gal(b1-3)GalNAc(a1-3)[Fuc(a1-2)]Gal(b1-4)Glc
Outline: as §1

[4] = target: Fuc(a1-2)Gal(b1-3)GalNAc(a1-3)[Fuc(a1-2)]Gal(b1-4)GlcNAc
Outline: as §1

[5] = target: Fuc(a1-2)Gal(b1-3)GalNAc(b1-3)Gal
Outline: as §1

[6] = target: Fuc(a1-2)Gal(b1-3)GalNAc(b1-3)Gal(a1-4)Gal(b1-4)Glc
Outline: as §1

[7] = target: Fuc(a1-2)Gal(b1-3)GalNAc(b1-4)[Neu5Ac(a2-3)]Gal(b1-4)Glc
Outline: as §1

[8] = target: Fuc(a1-2)Gal(b1-3)GlcNAc
Outline: as §1

[9] = target: Fuc(a1-2)Gal(b1-3)GlcNAc(b1-2)Man(a1-3)[Fuc(a1-2)Gal(b1-3)GlcNAc(b1-2)Man(a1-6)]Man(b1-4)GlcNAc(b1-4)GlcNAc
Outline: as §1

[10] = target: Fuc(a1-2)Gal(b1-3)GlcNAc(b1-2)Man(a1-3)[Fuc(a1-2)Gal(b1-3)GlcNAc(b1-2)Man(a1-6)]Man(b1-4)GlcNAc(b1-4)[Fuc(a1-6)]GlcNAc
Outline: as §1

[11] = target: Fuc(a1-2)Gal(b1-3)GlcNAc(b1-3)Gal(b1-4)Glc
Outline: as §1

[12] = target: Fuc(a1-2)Gal(b1-3)GlcNAc(b1-3)GalNAc
Outline: as §1

[13] = target: Fuc(a1-2)Gal(b1-3)GlcNAc(b1-3)[Fuc(a1-3)[Gal(b1-4)]GlcNAc(b1-6)]Gal(b1-4)Glc
Outline: as §1

[14] = target: Fuc(a1-2)Gal(b1-3)GlcNAc(b1-3)[Gal(b1-4)GlcNAc(b1-6)]Gal(b1-4)Glc
Outline: as §1

[15] = target: Fuc(a1-2)Gal(b1-3)GlcNAc(b1-3)[Neu5Ac(a2-6)Gal(b1-4)GlcNAc(b1-6)]Gal(b1-4)Glc
Outline: as §1

[16] = target: Fuc(a1-2)Gal(b1-3)[Fuc(a1-4)]GlcNAc
Outline: as §1

[17] = target: Fuc(a1-2)Gal(b1-3)[Fuc(a1-4)]GlcNAc(b1-2)Man(a1-3)[Fuc(a1-2)Gal(b1-3)[Fuc(a1-4)]GlcNAc(b1-2)Man(a1-6)]Man(b1-4)GlcNAc(b1-4)GlcNAc
Outline: as §1

[18] = target: Fuc(a1-2)Gal(b1-3)[Fuc(a1-4)]GlcNAc(b1-3)[Fuc(a1-3)[Gal(b1-4)]GlcNAc(b1-6)]Gal(b1-4)Glc
Outline: as §1

[19] = target: Fuc(a1-2)Gal(b1-3)[Fuc(a1-4)]GlcNAc(b1-3)[Gal(b1-4)GlcNAc(b1-6)]Gal(b1-4)Glc
Outline: as §1

[20] = target: Fuc(a1-2)Gal(b1-4)Glc
Outline: as §1

[21] = target: Fuc(a1-2)Gal(b1-4)Glc6S
Outline: as §1

[22] = target: Fuc(a1-2)Gal(b1-4)GlcNAc
Outline: as §1

[23] = target: Fuc(a1-2)Gal(b1-4)GlcNAc(b1-2)Man(a1-3)[Fuc(a1-2)Gal(b1-4)GlcNAc(b1-2)Man(a1-6)]Man(b1-4)GlcNAc(b1-4)GlcNAc
Outline: as §1

[24] = target: Fuc(a1-2)Gal(b1-4)GlcNAc(b1-2)Man(a1-3)[Fuc(a1-2)Gal(b1-4)GlcNAc(b1-2)Man(a1-6)]Man(b1-4)GlcNAc(b1-4)[Fuc(a1-6)]GlcNAc
Outline: as §1

[25] = target: Fuc(a1-2)Gal(b1-4)GlcNAc(b1-2)[Fuc(a1-2)Gal(b1-4)GlcNAc(b1-4)]Man(a1-3)[Fuc(a1-2)Gal(b1-4)GlcNAc(b1-2)Man(a1-6)]Man(b1-4)GlcNAc(b1-4)GlcNAc
Outline: as §1

[26] = target: Fuc(a1-2)Gal(b1-4)GlcNAc(b1-3)Gal(b1-4)GlcNAc
Outline: as §1

[27] = target: Fuc(a1-2)Gal(b1-4)GlcNAc(b1-3)Gal(b1-4)GlcNAc(b1-3)Gal(b1-4)GlcNAc
Outline: as §1

[28] = target: Fuc(a1-2)Gal(b1-4)GlcNAc(b1-3)GalNAc
Outline: as §1

[29] = target: Fuc(a1-2)Gal(b1-4)GlcNAc(b1-3)[Fuc(a1-2)Gal(b1-4)GlcNAc(b1-6)]GalNAc
Outline: as §1

[30] = target: Fuc(a1-2)Gal(b1-4)GlcNAc6S
Outline: as §1

[31] = target: Fuc(a1-2)Gal(b1-4)[Fuc(a1-3)]GlcNAc
Outline: as §1

[32] = target: Fuc(a1-2)Gal(b1-4)[Fuc(a1-3)]GlcNAc(b1-2)Man(a1-3)[Fuc(a1-2)Gal(b1-4)[Fuc(a1-3)]GlcNAc(b1-2)Man(a1-6)]Man(b1-4)GlcNAc(b1-4)GlcNAc
Outline: as §1

[33] = target: Fuc(a1-2)Gal(b1-4)[Fuc(a1-3)]GlcNAc(b1-2)[Fuc(a1-2)Gal(b1-4)[Fuc(a1-3)]GlcNAc(b1-4)]Man(a1-3)[Fuc(a1-2)Gal(b1-4)[Fuc(a1-3)]GlcNAc(b1-2)Man(a1-6)]Man(b1-4)GlcNAc(b1-4)GlcNAc
Outline: as §1

[34] = target: Fuc(a1-2)Gal(b1-4)[Fuc(a1-3)]GlcNAc(b1-3)Gal(b1-4)[Fuc(a1-3)]GlcNAc
Outline: as §1

[35] = target: Fuc(a1-2)Gal(b1-4)[Fuc(a1-3)]GlcNAc(b1-3)Gal(b1-4)[Fuc(a1-3)]GlcNAc(b1-3)Gal(b1-4)[Fuc(a1-3)]GlcNAc
Outline: as §1

[36] = target: Fuc(a1-2)Gal(b1-4)[Fuc(a1-3)]GlcNAc(b1-3)GalNAc
Outline: as §1

[37] = target: Fuc(a1-2)Gal6S(b1-4)Glc
Outline: as §1

[38] = target: Fuc(a1-2)Gal6S(b1-4)Glc6S
Outline: as §1

[39] = target: Fuc(a1-2)Gal6S(b1-4)GlcNAc
Outline: as §1

[40] = target: Fuc(a1-2)[Gal(a1-3)]Gal
Outline: as §1

[41] = target: Fuc(a1-2)[Gal(a1-3)]Gal(b1-3)GalNAc
Outline: as §1

[42] = target: Fuc(a1-2)[Gal(a1-3)]Gal(b1-3)GlcNAc
Outline: as §1

[43] = target: Fuc(a1-2)[Gal(a1-3)]Gal(b1-3)GlcNAc(b1-2)Man(a1-3)[Fuc(a1-2)[Gal(a1-3)]Gal(b1-3)GlcNAc(b1-2)Man(a1-6)]Man(b1-4)GlcNAc(b1-4)GlcNAc
Outline: as §1

[44] = target: Fuc(a1-2)[Gal(a1-3)]Gal(b1-3)GlcNAc(b1-2)Man(a1-3)[Fuc(a1-2)[Gal(a1-3)]Gal(b1-3)GlcNAc(b1-2)Man(a1-6)]Man(b1-4)GlcNAc(b1-4)[Fuc(a1-6)]GlcNAc
Outline: as §1

[45] = target: Fuc(a1-2)[Gal(a1-3)]Gal(b1-3)GlcNAc(b1-3)GalNAc
Outline: as §1

B1: AFL (Aspergillus fumigatus), Q4WW81 (protein)
chain: STPGAQQVLFRTGIAAVNLTNHLRVYFQDVYGSIRESLYEGSWANGTEKNVIGNAKLGSPVAATSKELKHIRVYTLTEGNTLQEFAYDSGTGWYNGGLGGAKFQVAPYSRIAAVFLAGTDALQLRIYAQKPDNTIQEYMWNGDGWKEGTNLGGALPGTGIGATSFRYTDYNGPSIRIWFQTDDLKLVQRAYDPHKGWYPDLVTIFDRAPPRTAIAATSFGAGNSSIYMRIYFVNSDNTIWQVCWDHGKGYHDKGTITPVIQGSEVAIISWGSFANNGPDLRLYFQNGTYISAVSEWVWNRAHGSQLGRSALPPA
**Q.** For B1, which “glycan array binding signal (z-score)” value [1] is on record?
**A.** Its value is 3.

**Q.** What about the “glycan array binding signal (z-score)” value [2] of the same binder?
**A.** The value was -0.12.

**Q.** And the “glycan array binding signal (z-score)” value [3]?
**A.** Its value is -0.201.

**Q.** And the “glycan array binding signal (z-score)” value [4]?
**A.** The value was -0.269.

**Q.** What about the “glycan array binding signal (z-score)” value [5] of the same binder?
**A.** The value was -0.382.

**Q.** And the “glycan array binding signal (z-score)” value [6]?
**A.** The value was 0.18.

**Q.** What about the “glycan array binding signal (z-score)” value [7] of the same binder?
**A.** The value was -0.377.

**Q.** And the “glycan array binding signal (z-score)” value [8]?
**A.** Its value is 0.189.

**Q.** What about the “glycan array binding signal (z-score)” value [9] of the same binder?
**A.** Its value is -0.22.

**Q.** And the “glycan array binding signal (z-score)” value [10]?
**A.** The value was -0.012.

**Q.** And the “glycan array binding signal (z-score)” value [11]?
**A.** The value was 0.571.

**Q.** What about the “glycan array binding signal (z-score)” value [12] of the same binder?
**A.** Its value is -0.347.

**Q.** And the “glycan array binding signal (z-score)” value [13]?
**A.** The value was 1.3.

**Q.** What about the “glycan array binding signal (z-score)” value [14] of the same binder?
**A.** Its value is 0.28.

**Q.** And the “glycan array binding signal (z-score)” value [15]?
**A.** The value was -0.227.

**Q.** And the “glycan array binding signal (z-score)” value [16]?
**A.** Its value is 1.21.

**Q.** And the “glycan array binding signal (z-score)” value [17]?
**A.** The value was -0.324.

**Q.** And the “glycan array binding signal (z-score)” value [18]?
**A.** Its value is 1.22.

**Q.** What about the “glycan array binding signal (z-score)” value [19] of the same binder?
**A.** The value was 0.175.

**Q.** And the “glycan array binding signal (z-score)” value [20]?
**A.** The value was 2.34.

**Q.** What about the “glycan array binding signal (z-score)” value [21] of the same binder?
**A.** Its value is 3.64.

**Q.** And the “glycan array binding signal (z-score)” value [22]?
**A.** The value was 2.94.

**Q.** What about the “glycan array binding signal (z-score)” value [23] of the same binder?
**A.** Its value is 2.23.

**Q.** And the “glycan array binding signal (z-score)” value [24]?
**A.** Its value is 0.564.

**Q.** And the “glycan array binding signal (z-score)” value [25]?
**A.** The value was 0.439.

**Q.** What about the “glycan array binding signal (z-score)” value [26] of the same binder?
**A.** The value was 2.64.

**Q.** What about the “glycan array binding signal (z-score)” value [27] of the same binder?
**A.** The value was 3.04.

**Q.** And the “glycan array binding signal (z-score)” value [28]?
**A.** Its value is -0.167.

**Q.** What about the “glycan array binding signal (z-score)” value [29] of the same binder?
**A.** Its value is 2.44.

**Q.** And the “glycan array binding signal (z-score)” value [30]?
**A.** The value was 3.17.

**Q.** What about the “glycan array binding signal (z-score)” value [31] of the same binder?
**A.** The value was 4.58.

**Q.** And the “glycan array binding signal (z-score)” value [32]?
**A.** The value was -0.042.

**Q.** And the “glycan array binding signal (z-score)” value [33]?
**A.** The value was 0.133.

**Q.** And the “glycan array binding signal (z-score)” value [34]?
**A.** The value was 3.88.

**Q.** And the “glycan array binding signal (z-score)” value [35]?
**A.** The value was 4.31.

**Q.** What about the “glycan array binding signal (z-score)” value [36] of the same binder?
**A.** The value was -0.346.

**Q.** And the “glycan array binding signal (z-score)” value [37]?
**A.** The value was 3.41.

**Q.** What about the “glycan array binding signal (z-score)” value [38] of the same binder?
**A.** Its value is 2.72.

**Q.** What about the “glycan array binding signal (z-score)” value [39] of the same binder?
**A.** The value was 2.03.

**Q.** And the “glycan array binding signal (z-score)” value [40]?
**A.** The value was 2.2.

**Q.** And the “glycan array binding signal (z-score)” value [41]?
**A.** Its value is -0.362.

**Q.** What about the “glycan array binding signal (z-score)” value [42] of the same binder?
**A.** Its value is -0.378.

**Q.** And the “glycan array binding signal (z-score)” value [43]?
**A.** Its value is -0.379.

**Q.** And the “glycan array binding signal (z-score)” value [44]?
**A.** Its value is -0.031.

**Q.** What about the “glycan array binding signal (z-score)” value [45] of the same binder?
**A.** The value was -0.382.

From the supplement of paper PMC8728848
